Reference: PubChem BioAssay AID504706 (National Center for Advancing Translational Sciences (NCATS), 2011)
In all, about 320,000 compounds went through this assay and about 200 (0.062%) were called active. This list was built around the results that the source calls inconclusive (neither active nor inactive); the mix of calls is not that of the screen. The call rests on the fitted dose curve; in most records, active means well fitted activation curve with a large enough effect; inconclusive means small, poorly fitted or top-dose-only effect; inactive means no such curve, though single readings can be large or run the other way. Potencies of inconclusive entries are left out as doubtful fits.

assay: qHTS assay for re-activators of p53 using a Luc reporter; details: H1299 p53-A138V BP100-luciferase reporter, luminescence, 24 h; series mostly up to 92.2 µM; activity change, positive = activation: at the top concentration; further: nearly all actives have a fitted effect of over 45% in size; on activity change, positive = activation: % of control where 0% means no effect
Method in brief: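 p53-null H1299 cells stably carrying temperature-sensitive p53-A138V and a BP100-luciferase reporter were pinned with compounds (4-point, 1:5 series) and held 24 hrs at 37 deg C. Luminescence was read 10 min after detection reagent.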
Potency means the concentration at half of the fitted maximal effect; tags describe the fitted curve by direction and shape.

**Q.** With `CC1CCc2nn(CC(=O)NCc3ccco3)cc2C1` (centres undefined) as the compound, how does the Potency read?
**A.** inconclusive [activator, full curve, poor fit]

**Q.** Which Potency does the source give for `Cc1ccc(/C=N\Nc2nc3ccc(Cl)cc3[nH]2)o1` here?
**A.** inconclusive [activator, full curve, poor fit]

**Q.** For `N/C(=N\OC(=O)CCCc1ccccc1)c1ccccc1Cl`, which Potency is on record?
**A.** inconclusive [activator, single point]

**Q.** For `O=C(Nc1cccc(-c2cccc(Cl)c2)c1)C1CCN(CC2CCOC2)CC1` (centres undefined), which Potency is on record?
**A.** inconclusive [activator, single point]

**Q.** For `C=C(C)COc1ccc2c(CC)cc(=O)oc2c1C`, which “activity change, positive = activation” value is on record?
**A.** inactive: -5.66%

**Q.** For `Cc1nnc(N=c2ssnc2Cl)o1`, which “activity change, positive = activation” value is on record?
**A.** inactive: 4.24%

**Q.** With `COC(=O)C1=NN(C(=O)c2cccc(Cl)c2)C(O)(C(C)(C)C)C1` (centres undefined) as the compound, how does the Potency read?
**A.** inconclusive [activator, single point]

**Q.** Which Potency does the source give for `COCCNC(=O)c1cc2oc3ccccc3c2n1C` here?
**A.** inconclusive [activator, partial curve, poor fit]

**Q.** With `CCc1cc(C(=O)Cc2ccc(F)cc2)c(O)cc1O` as the compound, how does the “activity change, positive = activation” value read?
**A.** inactive: 11%

**Q.** For `CC1=NN(C(N)=S)C(=O)C1N=Nc1ccc(Br)cc1` (centres undefined), which Potency is on record?
**A.** inconclusive [activator, partial curve, poor fit]

**Q.** For `CCS(=O)(=O)N1Cc2ccccc2CC1C(=O)Nc1nccs1` (centres undefined), which Potency is on record?
**A.** inconclusive [activator, partial curve, poor fit]

**Q.** Which “activity change, positive = activation” value does the source give for `Cc1cc(C)n(-c2ccc(C(=O)NC3=NCCS3)cc2)n1` here?
**A.** inactive: 17.3%

**Q.** Which “activity change, positive = activation” value does the source give for `C[C@H](CO)N1C[C@H](C)[C@@H](CN(C)C(=O)Nc2ccc(C(F)(F)F)cc2)Oc2c(cccc2N(C)C)C1=O` here?
**A.** inactive: -4.87%

**Q.** For `Cc1ccc(-n2nc3c(=O)n(CC(=O)NCCCc4ccccc4)nc(C)c3c2C)cc1`, which “activity change, positive = activation” value is on record?
**A.** inactive: -1.34%

**Q.** With `CCOc1ccc(CN2CCN(Cc3cc4ccccc4o3)CC2CCO)cc1` (centres undefined) as the compound, how does the Potency read?
**A.** inconclusive [activator, full curve, poor fit]

**Q.** With `Cc1cnc(C(=O)Nc2ccccc2F)cn1` as the compound, how does the Potency read?
**A.** inconclusive [activator, partial curve, poor fit]

**Q.** With `Cc1nc(N2CCN(c3ccccc3)CC2)[nH]c(=O)c1C` as the compound, how does the Potency read?
**A.** inconclusive [activator, single point]

**Q.** Which Potency does the source give for `CC1(C)CC(=O)C([N+](=O)[O-])=C(NCCCO)C1` here?
**A.** inconclusive [activator, partial curve, poor fit]

**Q.** Which Potency does the source give for `COc1ccc(C(=O)c2oc3ccccc3c2N)cc1` here?
**A.** inconclusive [activator, full curve, poor fit]

**Q.** Which Potency does the source give for `COc1cccc(NC(=O)NCc2cccn2C)c1` here?
**A.** inconclusive [activator, partial curve, poor fit]

**Q.** With `Cn1c(C(=O)NCCc2c[nH]c3ccccc23)cc2sccc21` as the compound, how does the Potency read?
**A.** inconclusive [activator, partial curve, poor fit]

**Q.** With `CCOC(=O)c1cnc2c(-c3ccccc3)c(C)nn2c1N` as the compound, how does the “activity change, positive = activation” value read?
**A.** inactive: 3.24%

**Q.** For `COc1ccccc1C(=O)NNC(=O)c1cccc(C)c1`, which “activity change, positive = activation” value is on record?
**A.** inactive: 11%

**Q.** For `COc1ccc(/C=N/Nc2nc3ccccc3c(=O)[nH]2)cc1`, which Potency is on record?
**A.** inconclusive [activator, full curve, poor fit]

**Q.** With `COc1ccc(C2=C(N)c3ccccc3C2=O)cc1` as the compound, how does the Potency read?
**A.** inconclusive [activator, partial curve, poor fit]

**Q.** For `Cc1cccc(C(=O)Nc2sc3c(c2C#N)CCCCC3)c1`, which Potency is on record?
**A.** inconclusive [activator, full curve, poor fit]

**Q.** Which Potency does the source give for `O=C(Nc1cnc2ccccc2c1)c1cccnc1` here?
**A.** inconclusive [activator, partial curve, poor fit]

**Q.** Which Potency does the source give for `Cc1cccc(NC(=S)/N=C(\N)Nc2nc(C)c3ccccc3n2)c1` here?
**A.** inconclusive [activator, single point]

**Q.** Which Potency does the source give for `O=C(CC1NCCc2ccccc21)Nc1ccccc1` (centres undefined) here?
**A.** inconclusive [activator, partial curve, poor fit]

**Q.** Which Potency does the source give for `CC(C)(C)C(=O)Nc1nc2cc3c(cc2s1)OCO3` here?
**A.** inconclusive [activator, partial curve, poor fit]

**Q.** With `COc1cccc(CSc2nc3ccccc3cc2C=O)c1` as the compound, how does the Potency read?
**A.** inconclusive [activator, single point]

**Q.** For `CN(C)S(=O)(=O)c1ccc(NC(=O)N2CCOCC2)cc1`, which Potency is on record?
**A.** inconclusive [activator, single point]

**Q.** For `CCCOCCOC(=O)C1=C(C)NC(=O)NC1c1cc(Cl)c(O)c(OC)c1` (centres undefined), which “activity change, positive = activation” value is on record?
**A.** inactive: -1.1%

**Q.** For `Cc1cc(F)ccc1S(=O)(=O)Nc1ccccc1C(=O)Nc1ncn[nH]1`, which “activity change, positive = activation” value is on record?
**A.** inactive: 7.3%

**Q.** Which Potency does the source give for `CCN(CC)S(=O)(=O)c1cc(C(=O)Nc2ccccc2[N+](=O)[O-])ccc1Cl` here?
**A.** inconclusive [activator, single point]

**Q.** With `O=c1c2cc(F)ccc2sn1-c1ccc(F)cc1` as the compound, how does the Potency read?
**A.** inconclusive [activator, single point]

**Q.** Which Potency does the source give for `CC(C)C(NC(=O)c1ccc(C(C)(C)C)cc1)C(=O)O` (centres undefined) here?
**A.** inconclusive [activator, single point]

**Q.** With `CN(C)c1ccc(CNc2ccc3c(c2)ncn3C)cc1` as the compound, how does the Potency read?
**A.** inconclusive [activator, single point]

**Q.** With `Cc1cccc(-c2nsc(SCC(=O)Nc3cc(C)on3)n2)c1` as the compound, how does the Potency read?
**A.** inconclusive [activator, single point]

**Q.** Which Potency does the source give for `Cc1ccc(N=Cc2ccc[nH]2)c(O)c1` here?
**A.** inconclusive [activator, partial curve, poor fit]

**Q.** With `CCOC(=O)c1sc2nc(C)nc(N3CCCCC3C)c2c1C` (centres undefined) as the compound, how does the “activity change, positive = activation” value read?
**A.** inactive: 0.851%

**Q.** With `Fc1ccc2nc(Nc3nc4cc5c(cc4s3)OCO5)sc2c1` as the compound, how does the Potency read?
**A.** inconclusive [activator, full curve, poor fit]

**Q.** Which “activity change, positive = activation” value does the source give for `CN(C)c1ccc(/C=N/NC(=O)C(=O)/C=C2\NC3(CCCC3)Cc3ccccc32)cc1` here?
**A.** inactive: -6.07%

**Q.** For `Cc1ccc2nc(NC(=O)c3ccc(Cl)s3)sc2c1`, which Potency is on record?
**A.** inconclusive [activator, full curve, poor fit]

**Q.** For `Cc1ccccc1N/N=C1\CCCNC1=O`, which Potency is on record?
**A.** inconclusive [activator, single point]

**Q.** For `Cc1ccc(C(=O)Nc2ccn(Cc3ccc(F)cc3)n2)o1`, which Potency is on record?
**A.** inconclusive [activator, full curve, poor fit]

**Q.** With `CC1CCCN(C(=O)c2cccc(S(=O)(=O)N3CCCC3)c2)C1` (centres undefined) as the compound, how does the Potency read?
**A.** inconclusive [activator, single point]

**Q.** Which Potency does the source give for `COc1cccc(C(=O)Nc2cc3c(cc2Br)OCCCO3)c1` here?
**A.** inconclusive [activator, partial curve, poor fit]

**Q.** For `CC(NC(=O)c1sc2ccccc2c1Cl)C1CCCO1` (centres undefined), which Potency is on record?
**A.** inconclusive [activator, partial curve, poor fit]

**Q.** With `C/C=C(\CS(=O)(=O)c1ccccc1)S(=O)(=O)c1ccccc1` as the compound, how does the Potency read?
**A.** inconclusive [activator, single point]

**Q.** For `CC(=O)/C(=N\Nc1ccccc1)Sc1cccc2cccnc12`, which “activity change, positive = activation” value is on record?
**A.** inactive: -1.66%

**Q.** Which Potency does the source give for `Fc1cccc2sc(Nc3nc4cc5c(cc4s3)OCCO5)nc12` here?
**A.** inconclusive [activator, partial curve, poor fit]

**Q.** With `CCCS(=O)(=O)NCc1ccc2c(c1)cc(C)n2C` as the compound, how does the Potency read?
**A.** inconclusive [activator, single point]

**Q.** With `COc1cccc(-c2nnn(C/C(N)=N/O)n2)c1` as the compound, how does the Potency read?
**A.** inconclusive [activator, full curve, poor fit]

**Q.** For `CN(C(=O)CCc1ccccc1F)C1CCCN(Cc2ccccc2F)C1` (centres undefined), which Potency is on record?
**A.** inconclusive [activator, single point]

**Q.** With `CCOc1ccc(CCN2CN(C3CCCCC3)CNC2=S)cc1OCC` as the compound, how does the “activity change, positive = activation” value read?
**A.** inactive: -3.29%

**Q.** With `Cc1ccc(COc2ccc3c(c2)OCO3)cc1` as the compound, how does the Potency read?
**A.** inconclusive [activator, partial curve, poor fit]

**Q.** Which Potency does the source give for `O=C(CN1C(=O)c2cccnc2C1=O)c1ccccc1` here?
**A.** inconclusive [activator, full curve, poor fit]

**Q.** Which Potency does the source give for `CC(=O)N1CCN(c2ccc(NC(=O)c3ccco3)cc2)CC1` here?
**A.** inconclusive [activator, full curve, poor fit]

**Q.** With `CCOC(=O)Nc1ccc2c(c1)Nc1ccccc1S2` as the compound, how does the Potency read?
**A.** inconclusive [activator, single point]

**Q.** For `O=C(Nc1ccc(N2CCOCC2)cc1)c1ccc(Br)o1`, which Potency is on record?
**A.** inconclusive [activator, partial curve, poor fit]

**Q.** With `CCOc1ccc(N/C(C)=C/C(=O)c2ccc(C)o2)cc1` as the compound, how does the Potency read?
**A.** inconclusive [activator, single point]

**Q.** With `O=C1CC(c2ccc(O)cc2)Oc2ccccc21` (centres undefined) as the compound, how does the Potency read?
**A.** inconclusive [activator, full curve, poor fit]

**Q.** With `Cc1ccc(CNC(=O)C2CCCN(c3ncnc4c3nc3n4CCCCC3)C2)cc1` (centres undefined) as the compound, how does the Potency read?
**A.** inconclusive [activator, partial curve, poor fit]

**Q.** With `Cc1ccc(OCC(=O)Nc2cc(NC(=O)COc3ccc(C)c(C)c3)cc(C(=O)O)c2)cc1C` as the compound, how does the Potency read?
**A.** inconclusive [activator, single point]

**Q.** For `S=C(NNc1nc(Nc2ccccc2)nc(N2CCCCC2)n1)NC1CCCCC1`, which “activity change, positive = activation” value is on record?
**A.** inactive: 9.17%

**Q.** Which “activity change, positive = activation” value does the source give for `Cc1ccc2nc(CSc3nc(C)nc4c3oc3ccccc34)[nH]c2c1` here?
**A.** inactive: -2.16%

**Q.** With `CC(C)(C)CC(=O)O/N=C(\N)c1ccccn1` as the compound, how does the Potency read?
**A.** inconclusive [activator, partial curve, poor fit]

**Q.** For `COc1cc2c(cc1OC)-c1cc(NC3CCCCC3)nc(=O)n1CC2`, which “activity change, positive = activation” value is on record?
**A.** inactive: -15.9%
